# According to the antibiotic and cytotoxicity screens of Wong et al. (2023):
# The list shows a part of the results.
# Tests used:
# HSkMC = human skeletal muscle cells; test: cytotoxicity call (relative viability < 0.9); conditions: 10 µM
# HepG2 = test: cytotoxicity call (relative viability < 0.9); conditions: 10 µM
# S. aureus RN4220 = test: growth inhibition call (relative growth <= 0.2); conditions: 50 µM
SMILES,cytotoxicity call (HSkMC),cytotoxicity call (HepG2),growth inhibition call (S. aureus RN4220)
C[C@H](CO)N1C[C@H](C)[C@H](CN(C)C(=O)Nc2ccc3c(c2)OCO3)OCc2cnnn2CCCC1=O,inactive,inactive,inactive
O=C(O)C[C@@H]1CC[C@H]2[C@@H](COC[C@@H](O)CN2S(=O)(=O)c2ccc(F)cc2)O1,inactive,inactive,inactive
COc1ccc(-c2coc3cc(OC)ccc3c2=O)c(O)c1,inactive,inactive,inactive
C[C@H]1CN([C@@H](C)CO)C(=O)c2cccc(NS(=O)(=O)c3cccs3)c2O[C@@H]1CN(C)S(=O)(=O)c1cn(C)cn1,inactive,inactive,inactive
Cc1ncc[nH]1,inactive,inactive,inactive
COc1ccc(S(=O)(=O)Nc2ccc3c(c2)CC(=O)N([C@H](C)CO)C[C@@H](C)[C@@H](CN(C)S(C)(=O)=O)O3)cc1,inactive,inactive,inactive
COC(=O)[C@@H](Cc1ccccc1)N[C@H](/C=C/C1CC1)[C@@H](O)CCn1cc(-c2ccc(C(=O)NO)s2)nn1,inactive,active,inactive
C[C@H](CO)N1C[C@H](C)[C@H](CN(C)Cc2ccncc2)OCCCC[C@H](C)Oc2ccc(NC(=O)Nc3ccc4c(c3)OCO4)cc2C1=O,inactive,inactive,inactive
Cc1noc(C)c1S(=O)(=O)Nc1ccc2c(c1)C(=O)N([C@H](C)CO)C[C@H](C)[C@H](CN(C)C(=O)Nc1ccc3c(c1)OCO3)O2,inactive,inactive,inactive
COc1ccc(C#Cc2ccc([C@H]3[C@H]4CN(S(=O)(=O)c5cn(C)cn5)CCCCN4[C@H]3CO)cc2)cc1,inactive,inactive,inactive
COc1ccc2c3c([nH]c2c1)[C@@H](CO)N(C[C@]13CN(Cc2ccccc2F)C1)S(=O)(=O)c1cn(cn1)C,inactive,inactive,inactive
C[C@@H]1CN([C@H](C)CO)C(=O)c2cc(NS(C)(=O)=O)ccc2O[C@@H]1CN(C)C(=O)Nc1ccc(C(F)(F)F)cc1,inactive,inactive,inactive
O=c1c2ccccc2oc2ccccc12,inactive,inactive,inactive
O=C(O)c1cc2c([nH]c1=O)CCC[C@@H]2O,inactive,inactive,inactive
COc1cc(/C=C(\C#N)C(=O)Nc2nnc(C(F)(F)F)s2)ccc1OCc1ccc(C(F)(F)F)cc1C(F)(F)F,inactive,inactive,inactive
C[C@H](CO)N1C[C@H](C)[C@H](CN(C)Cc2cccc3c2OCCCO3)OCc2cnnn2CCCC1=O,inactive,inactive,inactive
C[C@@H]1CN([C@H](C)CO)C(=O)Cc2cc(NS(=O)(=O)c3cn(C)cn3)ccc2O[C@H]1CN(C)C(=O)Nc1ccc2c(c1)OCO2,inactive,inactive,inactive
Cc1ccc(S(=O)(=O)Nc2ccc3c(c2)CC(=O)N([C@@H](C)CO)C[C@H](C)[C@@H](CN(C)S(=O)(=O)c2c(C)noc2C)O3)cc1,inactive,inactive,inactive
C[C@@H]1CN([C@@H](C)CO)C(=O)c2c(c3ccccc3n2C)-c2ccccc2CO[C@H]1CN(C)Cc1ccc(C(=O)O)cc1,inactive,inactive,inactive
CC(C)NCCCC[C@H](NC(=O)[C@H]1CCC(=O)N[C@@H](Cc2ccccc2)C(=O)N[C@H](Cc2ccc(O)cc2)C(=O)N[C@@H](CCCCNC(C)C)C(=O)N[C@H](CCCN=C(N)N)C(=O)N[C@@H](Cc2ccc3ccccc3c2)C(=O)NCC(=O)N1)C(N)=O,inactive,inactive,inactive
Cc1noc(C)c1NC(=O)N(C)C[C@H]1OCCCC[C@@H](C)Oc2ccc(NC(=O)c3ccccc3)cc2C(=O)N([C@H](C)CO)C[C@H]1C,inactive,inactive,inactive
O=c1[nH]nc(N2CCSCC2)[nH]1,inactive,inactive,inactive
CC1(C)CCC(c2ccc(Cl)cc2)=C(CN2CCN(c3ccc(C(=O)NS(=O)(=O)c4ccc(N[C@@H](CCN5CCOCC5)CSc5ccccc5)c(S(=O)(=O)C(F)(F)F)c4)cc3)CC2)C1,active,active,inactive
C[C@@H]1CN([C@@H](C)CO)S(=O)(=O)c2ccc(C#Cc3ccccc3F)cc2O[C@H]1CN(C)C(=O)Cc1ccncc1,inactive,inactive,inactive

SMILES,cytotoxicity call (HSkMC),cytotoxicity call (HepG2),growth inhibition call (S. aureus RN4220)
COc1cccc(NC(=O)N2C[C@H](O)COC[C@@H]3O[C@H](CC(=O)NC4Cc5ccccc5C4)CC[C@H]32)c1,inactive,inactive,inactive
Cc1noc(C)c1S(=O)(=O)Nc1ccc2c(c1)C(=O)N([C@@H](C)CO)C[C@H](C)[C@H](CN(C)C(=O)Nc1ccc3c(c1)OCO3)O2,inactive,inactive,inactive
CCc1ccc(/C=C2\SC(=O)N(CCCCCCNC(=O)c3ccc(Nc4ccc([N+](=O)[O-])c5nonc45)cc3)C2=O)cc1,inactive,inactive,inactive
COc1ccc(NC(=O)Nc2ccc3c(c2)CC(=O)N([C@H](C)CO)C[C@H](C)[C@H](CN(C)C(=O)Nc2cccc4ccccc24)O3)cc1,inactive,inactive,inactive
Cc1noc(C)c1NC(=O)N(C)C[C@H]1Oc2ccc(NC(=O)Nc3ccc(C(F)(F)F)cc3)cc2C(=O)N([C@@H](C)CO)C[C@H]1C,inactive,inactive,inactive
COc1ccc2c(c1)/C(=N\O)C(=O)N2,inactive,inactive,inactive
CCOC(=O)C1CCN(S(=O)(=O)c2c(C)n(C)c(=O)n(C)c2=O)CC1,inactive,inactive,inactive
O=C(/C=C/c1ccc(O)c(O)c1)O[C@H]([C@H](OC(=O)/C=C/c1ccc(O)c(O)c1)[C@H](OC(=O)/C=C/c1ccc(O)c(O)c1)C(=O)O)[C@@H](OC(=O)/C=C/c1ccc(O)c(O)c1)C(=O)O,inactive,inactive,inactive
C[C@@H]1CN([C@H](C)CO)C(=O)Cc2cc(NC(=O)Cc3cn(C)c4ccccc34)ccc2O[C@@H]1CN(C)S(C)(=O)=O,inactive,inactive,inactive
C[C@H]1CC/C=C\[C@H]2O[C@@]34C=CCN(c5ccc(Cl)cc5)C(=O)[C@H]3N(CCCO)C(=O)[C@]4(C)[C@@H]2C(=O)O1,inactive,inactive,inactive
C[C@H]1CN([C@@H](C)CO)C(=O)c2cc(NC(=O)c3ccncc3)ccc2O[C@H]1CN(C)S(=O)(=O)c1cn(C)cn1,inactive,inactive,inactive
C[C@H](CO)N1C[C@H](C)[C@H](CN(C)Cc2ccccc2)Oc2cc(C#Cc3ccccn3)ccc2S1(=O)=O,inactive,inactive,inactive
C[C@@H]1CN([C@@H](C)CO)C(=O)c2cccc(NC(=O)Nc3ccc(C(F)(F)F)cc3)c2O[C@H]1CN(C)Cc1ccc(C(F)(F)F)cc1,inactive,active,inactive
COc1ccc(S(=O)(=O)Nc2ccc3c(c2)C(=O)N([C@H](C)CO)C[C@@H](C)[C@H](CN(C)C(=O)Nc2cccc4ccccc24)O3)cc1,inactive,inactive,inactive
COc1ccc(NC(=O)Nc2ccc3c(c2)[C@@H]2C[C@@H](CC(=O)NCC(F)(F)F)O[C@@H](CO)[C@@H]2O3)cc1,inactive,inactive,inactive
CO[C@@H]1CN(C)C(=O)c2cc(NC(=O)c3cc(C)on3)ccc2OC[C@@H](C)N(S(=O)(=O)c2ccccc2)C[C@H]1C,inactive,inactive,inactive
C[C@H](CO)N1C[C@H](C)[C@@H](CN(C)Cc2ccc3c(c2)OCO3)Oc2ccc(NC(=O)CCN3CCOCC3)cc2C1=O,inactive,inactive,inactive
CC(C)NC(=O)N(C)C[C@H]1Oc2ccc(NS(=O)(=O)c3ccc(Cl)cc3)cc2C(=O)N([C@H](C)CO)C[C@H]1C,inactive,inactive,inactive
NNS(=O)(=O)c1ccc(Cl)cc1,inactive,inactive,inactive
C[C@H](CO)N1C[C@H](C)[C@H](CN(C)C(=O)C2CCCCC2)OCCCC[C@H](C)Oc2ccc(NS(=O)(=O)c3ccc(F)cc3)cc2C1=O,inactive,inactive,inactive
C[C@H]1CCCCO[C@H](CN(C)C(=O)c2ccccc2)[C@@H](C)CN([C@@H](C)CO)C(=O)c2cc(NC(=O)Nc3ccc(F)cc3)ccc2O1,inactive,inactive,inactive
COc1ccc(NC(=O)Nc2cccc3c2O[C@@H](CN(C)CC2CCCCC2)[C@H](C)CN([C@@H](C)CO)C3=O)cc1,inactive,inactive,inactive
C[C@@H]1CN([C@H](C)CO)C(=O)Cc2cc(NC(=O)Cc3cn(C)c4ccccc34)ccc2O[C@H]1CN(C)CC1CCCCC1,inactive,inactive,inactive
